Where two headings read alike, the source gives them in different places. These are yes or no findings as the source states them, for the method shown. In cells and extracts the contact can be indirect. Some results given as binding are weak or reduced against the parent protein; the word gives no strength. Sequences can lack the tags named with a protein. One block for each molecule: values may come before it.
What was measured:
Assay in all cases: pull-down; purified GST-DND1 (or GST) incubated with 40 uL [35S]methionine-labeled in vitro translated protein (reticulocyte lysate) and Glutathione Sepharose 4B beads; beads washed, eluted at 95 C, NuPAGE-Mes gel; control beads only; treatment of the APOBEC3-GST-DND1 complexes with RNase or DNase for 1 h did not affect binding; only the target purified
GST-DND1α (mouse) [1] = target: T1, GST-DND1α (mouse) (UniProt Q6VY05)
T1 sequence: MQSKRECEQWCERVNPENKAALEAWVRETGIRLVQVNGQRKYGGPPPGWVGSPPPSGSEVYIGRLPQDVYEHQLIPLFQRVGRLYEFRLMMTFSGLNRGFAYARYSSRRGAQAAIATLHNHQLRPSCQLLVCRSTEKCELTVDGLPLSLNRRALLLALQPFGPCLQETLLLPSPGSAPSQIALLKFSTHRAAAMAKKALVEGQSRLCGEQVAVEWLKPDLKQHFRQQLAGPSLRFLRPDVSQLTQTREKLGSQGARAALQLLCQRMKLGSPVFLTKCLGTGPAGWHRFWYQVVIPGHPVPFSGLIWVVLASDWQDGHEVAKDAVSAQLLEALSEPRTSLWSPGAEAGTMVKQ

Amino acid sequences for entries named in this document (tags omitted).
UniProt P41238: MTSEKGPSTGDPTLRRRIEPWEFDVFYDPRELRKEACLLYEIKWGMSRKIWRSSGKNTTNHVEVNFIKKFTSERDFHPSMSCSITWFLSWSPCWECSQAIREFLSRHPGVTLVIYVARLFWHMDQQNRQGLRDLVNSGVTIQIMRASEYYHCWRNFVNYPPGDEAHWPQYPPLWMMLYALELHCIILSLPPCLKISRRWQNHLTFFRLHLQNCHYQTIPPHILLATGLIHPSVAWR

GST-DND1α (mouse) [2] = target: T1, GST-DND1α (mouse); remark: listed apart in the source
GST-DND1β (mouse) = target: T2, GST-DND1β (mouse) (UniProt Q6VY05)
T2 sequence: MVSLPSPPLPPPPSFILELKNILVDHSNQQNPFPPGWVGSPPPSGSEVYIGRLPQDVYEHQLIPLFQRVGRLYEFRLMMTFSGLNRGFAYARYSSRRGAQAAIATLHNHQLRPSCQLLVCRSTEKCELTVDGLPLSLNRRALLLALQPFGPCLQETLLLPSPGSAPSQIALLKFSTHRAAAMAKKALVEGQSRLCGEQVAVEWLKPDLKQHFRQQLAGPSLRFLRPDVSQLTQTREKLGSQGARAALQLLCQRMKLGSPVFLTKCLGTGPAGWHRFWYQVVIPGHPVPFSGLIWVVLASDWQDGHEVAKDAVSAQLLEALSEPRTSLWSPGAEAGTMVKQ

B1: mouse APOBEC2, [35S]methionine-labeled, in vitro translated (protein, UniProt Q9WV35 1-224)
chain: MAQKEEAAEAAAPASQNGDDLENLEDPEKLKELIDLPPFEIVTGVRLPVNFFKFQFRNVEYSSGRNKTFLCYVVEVQSKGGQAQATQGYLEDEHAGAHAEEAFFNTILPAFDPALKYNVTWYVSSSPCAACADRILKTLSKTKNLRLLILVSRLFMWEEPEVQAALKKLKEAGCKLRIMKPQDFEYIWQNFVEQEEGESKAFEPWEDIQENFLYYEEKLADILK
modifications: [35S]methionine-labeled
binding (GST-DND1α (mouse) [2]): no binding

B2: human ACF (APOBEC1 complementation factor), [35S]methionine-labeled, in vitro translated (protein, UniProt Q9NQ94 1-594)
chain: MESNHKSGDGLSGTQKEAALRALVQRTGYSLVQENGQRKYGGPPPGWDAAPPERGCEIFIGKLPRDLFEDELIPLCEKIGKIYEMRMMMDFNGNNRGYAFVTFSNKVEAKNAIKQLNNYEIRNGRLLGVCASVDNCRLFVGGIPKTKKREEILSEMKKVTEGVVDVIVYPSAADKTKNRGFAFVEYESHRAAAMARRKLLPGRIQLWGHGIAVDWAEPEVEVDEDTMSSVKILYVRNLMLSTSEEMIEKEFNNIKPGAVERVKKIRDYAFVHFSNREDAVEAMKALNGKVLDGSPIEVTLAKPVDKDSYVRYTRGTGGRGTMLQGEYTYSLGQVYDPTTTYLGAPVFYAPQTYAAIPSLHFPATKGHLSNRAIIRAPSVREIYMNVPVGAAGVRGLGGRGYLAYTGLGRGYQVKGDKREDKLYDILPGMELTPMNPVTLKPQGIKLAPQILEEICQKNNWGQPVYQLHSAIGQDQRQLFLYKITIPALASQNPAIHPFTPPKLSAFVDEAKTYAAEYTLQTLGIPTDGGDGTMATAAAAATAFPGYAVPNATAPVSAAQLKQAVTLGQDLAAYTTYEVYPTFAVTARGDGYGTF
modifications: [35S]methionine-labeled
binding (GST-DND1α (mouse) [2]): no binding

Now from value to molecule:

binding (GST-DND1α (mouse) [1]): binds weakly
Molecule: human APOBEC1, [35S]methionine-labeled, in vitro translated (from UniProt P41238 1-236)

binding (GST-DND1α (mouse) [2]): binds
binding (GST-DND1β (mouse)): binds
B3: mouse APOBEC3, 9-exon isoform, [35S]methionine-labeled, in vitro translated (protein, UniProt Q99J72 1-440)
chain: MQPQRLGPRAGMGPFCLGCSHRKCYSPIRNLISQETFKFHFKNLGYAKGRKDTFLCYEVTRKDCDSPVSLHHGVFKNKDNIHAEICFLYWFHDKVLKVLSPREEFKITWYMSWSPCFECAEQIVRFLATHHNLSLDIFSSRLYNVQDPETQQNLCRLVQEGAQVAAMDLYEFKKCWKKFVDNGGRRFRPWKRLLTNFRYQDSKLQEILRPCYISVPSSSSSTLSNICLTKGLPETRFWVEGRRMDPLSEEEFYSQFYNQRVKHLCYYHRMKPYLCYQLEQFNGQAPLKGCLLSEKGKQHAEILFLDKIRSMELSQVTITCYLTWSPCPNCAWQLAAFKRDRPDLILHIYTSRLYFHWKRPFQKGLCSLWQSGILVDVMDLPQFTDCWTNFVNPKRPFWPWKGLEIISRRTQRRLRRIKESWGLQDLVNDFGNLQLGPPMS
modifications: [35S]methionine-labeled

Source: article PMC2384002
